The results in this text go back to the RNAGym collection of RNA variant scans (doi:10.1073/pnas.2313332121).

Variants at the floor of the assay are shown more often than the library holds them.

First the molecules themselves.
B1: TPR 5TU (parent)
chain: GGAUCUUCUCGAUCUAACAAAAAAGACAAAUCUGCCACAAAGCUUGAGAGCAUCUUCGGAUGCAGAGGCGGCAGCCUUCGGUGGCGCGAUAGCGCCAACGUUCUCAACUAUGACACGCAAAACGCGUGCUCCGUUGAAUGGAGUUUAUCAUG

In this series the parent is B1. Briefly: polymerase ribozyme fitness, log enrichment relative to wild type (log ratio); higher = more active; in vitro selection for triplet polymerase activity. The method in brief: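 Libraries of mutants in each subunit of a heterodimeric triplet polymerase ribozyme were generated by PCR and transcribed. In triplicate, each went through one in vitro selection round: annealing with biotinylated primer, partner subunit and triplets; frozen incubation at −7 °C; gel excision of extended constructs; streptavidin-bead capture; RT-PCR. Fitness, taken from Illumina sequencing of input and output libraries, is the logarithm of a genotype's enrichment over wild-type enrichment, averaged across replicates with inverse-variance weights. The logarithm is base 2, and genotypes needed ≥10 input reads and ≥1 read per output to be kept.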
A41U C51G G58U U61A G68A C96A A97C U102C: the “polymerase ribozyme fitness (log ratio)” value is at most -4.2.

For G42U A64U G83A C87U U101G C116A, the “polymerase ribozyme fitness (log ratio)” value is at most -4.2.

C43A C69A A91G G92A G140C: the “polymerase ribozyme fitness (log ratio)” value was at most -4.2.

Take G42C C51G U56A G83A C105U A122U U148A: the “polymerase ribozyme fitness (log ratio)” value was at most -4.2.

On to G42A G62A G68U, for which the “polymerase ribozyme fitness (log ratio)” value was at most -4.2.

Regarding G42C C43U C54U A98G A120G, the “polymerase ribozyme fitness (log ratio)” value was at most -4.2.

As to A41U U44A C54U C79G G83C A98U, the “polymerase ribozyme fitness (log ratio)” value is at most -4.2.

For the variant A41U G58C C79A, the “polymerase ribozyme fitness (log ratio)” value is at most -4.2.

In the case of G42A G50C U55A G84A G143U, the “polymerase ribozyme fitness (log ratio)” value is at most -4.2.

G42A A98G C99U A138G: the “polymerase ribozyme fitness (log ratio)” value was at most -4.2.

With G42C U53A C99U, the “polymerase ribozyme fitness (log ratio)” value is at most -4.2.

G42C C51G C54G U77G U82G C114U: the “polymerase ribozyme fitness (log ratio)” value was at most -4.2.

For the variant G42C C72G C93A A150G, the “polymerase ribozyme fitness (log ratio)” value was at most -4.2.

G42C G62A G68A U101G: the “polymerase ribozyme fitness (log ratio)” value is at most -4.2.

Turning to G42C G74A G92U C103G C116U, the “polymerase ribozyme fitness (log ratio)” value was at most -4.2.

As for C43A G58C C99U U130C C131U, the “polymerase ribozyme fitness (log ratio)” value was at most -4.2.

Consider A41U A73U, for which the “polymerase ribozyme fitness (log ratio)” value was -1.65.

Take G42U G48C G62C C96A G140U: the “polymerase ribozyme fitness (log ratio)” value is at most -4.2.

C43A G50A C72U G84U U90A C103A G141U: the “polymerase ribozyme fitness (log ratio)” value was at most -4.2.

For G42U A66C, the “polymerase ribozyme fitness (log ratio)” value was at most -4.2.

For the variant G42A G88C C118U, the “polymerase ribozyme fitness (log ratio)” value was at most -4.2.

Turning to A41G U44A U55A, the “polymerase ribozyme fitness (log ratio)” value is -3.41.

Turning to G42U C57A C96G C108U, the “polymerase ribozyme fitness (log ratio)” value was at most -4.2.

For A41U C54G G65C G84U G141A C149A, the “polymerase ribozyme fitness (log ratio)” value is at most -4.2.

Take G42U G67A: the “polymerase ribozyme fitness (log ratio)” value is at most -4.2.

Consider G42C U55A C93A U146A, for which the “polymerase ribozyme fitness (log ratio)” value is at most -4.2.

In the case of G42A G80C A106G C125G, the “polymerase ribozyme fitness (log ratio)” value is at most -4.2.

Consider G42U A52G G117A, for which the “polymerase ribozyme fitness (log ratio)” value is at most -4.2.

A41U U45A G58U G70A C87G C93U: the “polymerase ribozyme fitness (log ratio)” value was at most -4.2.

Consider C43A G59U G86A C103A A138C, for which the “polymerase ribozyme fitness (log ratio)” value was at most -4.2.

In the case of G42U U45G C69U C93U, the “polymerase ribozyme fitness (log ratio)” value is at most -4.2.

As for C43A A64C C72U, the “polymerase ribozyme fitness (log ratio)” value was at most -4.2.

Consider G42U A121U, for which the “polymerase ribozyme fitness (log ratio)” value was at most -4.2.

Turning to C43A G50A A106G, the “polymerase ribozyme fitness (log ratio)” value is at most -4.2.

Consider G42U C99A G136C U139A, for which the “polymerase ribozyme fitness (log ratio)” value was at most -4.2.

C43A A115U C118G: the “polymerase ribozyme fitness (log ratio)” value was at most -4.2.

For G42U U56A C75A C95U U144C, the “polymerase ribozyme fitness (log ratio)” value is at most -4.2.

As to G42A G86A, the “polymerase ribozyme fitness (log ratio)” value was -3.97.

Take G42A C63G U82G C95U U111C C123G U139A: the “polymerase ribozyme fitness (log ratio)” value was at most -4.2.

For C43A C79G C85U A106G C118U G141C, the “polymerase ribozyme fitness (log ratio)” value was at most -4.2.

As to A41U U55A C85A A150U, the “polymerase ribozyme fitness (log ratio)” value was -2.65.

As for G42C U56A A89U C93G, the “polymerase ribozyme fitness (log ratio)” value is at most -4.2.

With C43A G83C U139A, the “polymerase ribozyme fitness (log ratio)” value is at most -4.2.

G42A C79G A91C C95A C149U U151A: the “polymerase ribozyme fitness (log ratio)” value was at most -4.2.

Regarding G42A A47C G83U A115G, the “polymerase ribozyme fitness (log ratio)” value is at most -4.2.

For the variant G42U A60G U139C U148A, the “polymerase ribozyme fitness (log ratio)” value is -4.08.

On to G42C G70U C87A C103G G141A, for which the “polymerase ribozyme fitness (log ratio)” value is at most -4.2.

G42U G59A C87U C149G: the “polymerase ribozyme fitness (log ratio)” value is at most -4.2.

Consider C43A G86A A119U A120C C129G A138U, for which the “polymerase ribozyme fitness (log ratio)” value is at most -4.2.

On to G42A A113C C118U C125G, for which the “polymerase ribozyme fitness (log ratio)” value was at most -4.2.

Take G42C A49G C51U G58A G92A A115U A120U C131A U134A G140U U151G: the “polymerase ribozyme fitness (log ratio)” value was at most -4.2.

G42C G94A U102A C118U U135C: the “polymerase ribozyme fitness (log ratio)” value was at most -4.2.

Consider A41G U53C U55A U82G U127G, for which the “polymerase ribozyme fitness (log ratio)” value is -4.02.

With A41U G42A G92U C99A U101G A122U C132U, the “polymerase ribozyme fitness (log ratio)” value is at most -4.2.

For G42C C51A U55A C95U A98C, the “polymerase ribozyme fitness (log ratio)” value was at most -4.2.

For C43A C79G G83C C85A C93U G141C, the “polymerase ribozyme fitness (log ratio)” value is at most -4.2.

Consider G42C G84A, for which the “polymerase ribozyme fitness (log ratio)” value is at most -4.2.

With C43A A60C, the “polymerase ribozyme fitness (log ratio)” value is at most -4.2.

For G42A U56C G70U G88U A89C C96A U127A C149A, the “polymerase ribozyme fitness (log ratio)” value was at most -4.2.

Consider A41U G58A A147U, for which the “polymerase ribozyme fitness (log ratio)” value was 0.803.

On to G42A A52U U53A G62C U82C U134C U146G, for which the “polymerase ribozyme fitness (log ratio)” value is at most -4.2.

For the variant G42C U148C, the “polymerase ribozyme fitness (log ratio)” value was at most -4.2.

For G42U C54U C85G G124U, the “polymerase ribozyme fitness (log ratio)” value is at most -4.2.

Take G42A A49U A60G C96U A138G: the “polymerase ribozyme fitness (log ratio)” value is at most -4.2.

Take A41U G71A C79G C95A U102C G143C: the “polymerase ribozyme fitness (log ratio)” value was at most -4.2.

As to A41U A52C G62U C87G A89G C95U C116A A142C U146A A150C, the “polymerase ribozyme fitness (log ratio)” value is at most -4.2.

As for G42A G58C G59C G88C A91G A106C A107G, the “polymerase ribozyme fitness (log ratio)” value is at most -4.2.

Take G42A A107C: the “polymerase ribozyme fitness (log ratio)” value is at most -4.2.

In the case of A41U C75G C93U G128U, the “polymerase ribozyme fitness (log ratio)” value was at most -4.2.

Turning to A41U G50A C51A G86U C105G, the “polymerase ribozyme fitness (log ratio)” value was at most -4.2.

As to A41U U82C C87U C125G G126C U144G, the “polymerase ribozyme fitness (log ratio)” value is -2.6.

For the variant A41U G140A, the “polymerase ribozyme fitness (log ratio)” value was -3.78.

For G42C G50U U61G G86A C114A, the “polymerase ribozyme fitness (log ratio)” value is at most -4.2.

For G42A G58A A64C G65U G84U, the “polymerase ribozyme fitness (log ratio)” value was at most -4.2.

Consider G42U C69G, for which the “polymerase ribozyme fitness (log ratio)” value is at most -4.2.

A41U G50A C99G C114A A121G C125A: the “polymerase ribozyme fitness (log ratio)” value is at most -4.2.

As for G42C C43A U55G C57U A66C A137C G141C, the “polymerase ribozyme fitness (log ratio)” value was at most -4.2.

For G42A C96G A110C G152C, the “polymerase ribozyme fitness (log ratio)” value was at most -4.2.

In the case of G42C G59C G117U U146A, the “polymerase ribozyme fitness (log ratio)” value is at most -4.2.

G42A G141U U145G: the “polymerase ribozyme fitness (log ratio)” value was at most -4.2.

With G42C C103G, the “polymerase ribozyme fitness (log ratio)” value was at most -4.2.

Consider A41U U56G G62C A91U C103U A119U, for which the “polymerase ribozyme fitness (log ratio)” value is at most -4.2.

Consider G42C C54A A64C U77A G83C G126A U145A, for which the “polymerase ribozyme fitness (log ratio)” value was at most -4.2.
